Reference: publication PMC4336329 (PLoS ONE, 2015)
Out of some 310,000 compounds screened, about 14,000 (4.5%) showed an effect of 50% or more. Effects have a minus sign here. The list shows a part of the results.

target: human ether-à-go-go-related gene (hERG) potassium channel (human, UniProt Q12809); assay: primary screen, population patch clamp on CHO cells stably expressing hERG
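Also: peak tail current of the secondary pulse compared with the same well before compound.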

Sequence of human ether-à-go-go-related gene (hERG) potassium channel (Q12809 whole entry, looked up): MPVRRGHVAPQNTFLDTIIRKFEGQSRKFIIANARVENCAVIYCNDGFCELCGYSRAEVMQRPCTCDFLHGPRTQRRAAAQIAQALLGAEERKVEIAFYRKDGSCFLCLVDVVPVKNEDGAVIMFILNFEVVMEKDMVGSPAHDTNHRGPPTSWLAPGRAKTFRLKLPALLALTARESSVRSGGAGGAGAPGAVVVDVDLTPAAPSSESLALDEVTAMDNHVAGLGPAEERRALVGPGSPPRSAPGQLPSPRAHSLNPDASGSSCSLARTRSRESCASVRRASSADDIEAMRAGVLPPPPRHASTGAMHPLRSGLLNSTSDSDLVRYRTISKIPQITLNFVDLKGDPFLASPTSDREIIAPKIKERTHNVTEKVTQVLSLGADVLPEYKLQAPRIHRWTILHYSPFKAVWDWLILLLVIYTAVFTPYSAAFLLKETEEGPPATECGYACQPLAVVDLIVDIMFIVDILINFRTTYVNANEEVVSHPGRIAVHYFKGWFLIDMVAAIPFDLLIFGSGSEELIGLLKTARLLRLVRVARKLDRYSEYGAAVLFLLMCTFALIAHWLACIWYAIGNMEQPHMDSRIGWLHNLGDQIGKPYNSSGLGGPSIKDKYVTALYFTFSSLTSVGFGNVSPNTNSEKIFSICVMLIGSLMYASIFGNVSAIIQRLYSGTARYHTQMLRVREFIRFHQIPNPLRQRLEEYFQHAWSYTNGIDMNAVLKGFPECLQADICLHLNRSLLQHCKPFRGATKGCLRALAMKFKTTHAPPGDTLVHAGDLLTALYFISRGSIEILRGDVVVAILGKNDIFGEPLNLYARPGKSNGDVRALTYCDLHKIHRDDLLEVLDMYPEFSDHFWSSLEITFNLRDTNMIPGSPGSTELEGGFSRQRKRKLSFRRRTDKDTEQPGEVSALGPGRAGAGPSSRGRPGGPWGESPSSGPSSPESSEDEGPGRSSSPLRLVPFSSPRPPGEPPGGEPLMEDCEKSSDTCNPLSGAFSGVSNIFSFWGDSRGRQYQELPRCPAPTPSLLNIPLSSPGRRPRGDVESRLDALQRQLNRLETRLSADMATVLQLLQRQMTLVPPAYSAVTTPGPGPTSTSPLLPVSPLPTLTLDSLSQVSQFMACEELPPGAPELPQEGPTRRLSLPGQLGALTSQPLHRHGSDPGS

Structure (SMILES) | hERG current change (%, negative = inhibition) at 10uM [%]
CC#CCN1C(=O)N[C@@H](c2ccccc2)C(C(=O)OC)=C1C | 5.33
CCOc1ccc(Oc2c(/C=N/NC(=O)C3CC3)c(C)nn2-c2ccccc2)cc1 | 8.41
CCOC(=O)C(NC(=O)c1ccccc1)(OCC1(CC)COC1)C(F)(F)F (centres unmarked) | 6.36
Oc1[nH]c2ccccc2c1C1=NCCCC1 | 12.6
COC(=O)C(Cc1ccc(O)cc1)NC(=O)C12CC3CC(CC(C3)C1)C2 (centres unmarked) | 25.5
CC(C)(C)c1ccc(C(=O)N2CCC3(CC2)NCCc2[nH]cnc23)cc1 | -8.51
COC(=O)c1c(C(=O)OC)c(-c2ccccc2)n2c1CCC2 | 0.783
COc1cc(OC)nc(NC2OC(=O)c3ccccc32)n1 (centres unmarked) | 0.248
CC(=O)NC(C1C(=O)CC(C)(C)CC1=O)(C(F)(F)F)C(F)(F)F | 14.4
Cc1ccc(-c2nc(C)sc2CC(=O)Nc2cccc(C)c2C)cc1 | -24.7
COc1ccc(OC)c(S(=O)(=O)N2Cc3ccccc3CC2C(=O)O)c1 (centres unmarked) | -0.319
O=S(=O)(Nc1ccc(C(F)(F)F)cc1)c1cnc[nH]1 | 10.2
Cc1ccc(S(=O)(=O)CC(=O)N2CCCC2)cc1 | -0.506
Cc1cc(C)c2nc(C(F)(F)F)c(C#N)c(N)c2c1 | 17.4
Cc1cc(Cl)cc(Br)c1OCCNCC(C)O (centres unmarked) | -18.7
Cc1ccc(Nc2ncnc(N)n2)cc1 | 9.24
CC(C)OC(=O)CSc1nnc(-c2cnccn2)n1-c1ccc(Cl)cc1 | -29.6
CN(CC(=O)Nc1ccc2c(c1)OCCO2)S(=O)(=O)c1ccc(Br)s1 | -5.77
Cc1ccc(C2Oc3ccccc3C3=C2C(c2cccs2)n2ncnc2N3)cc1 (centres unmarked) | -7.55
COc1ccccc1C(=O)N1CCNC(=O)C1CC(=O)Nc1cccc(C)c1 (centres unmarked) | 12.3
COc1cc(OC)c(S(=O)(=O)N2CCOCC2)cc1S(=O)(=O)N1CCOCC1 | 13.9
COc1ccc(S(=O)(=O)N2CCOC2CNC(=O)C(=O)NCCN2CCOCC2)cc1 (centres unmarked) | 24.8
Cc1cc(C)c(C)c(S(=O)(=O)ON2C(=O)c3ccccc3C2=O)c1C | 4.37
O=C(COc1ccccc1F)N1c2ccccc2CCc2ccccc21 | 7.72
CC(C)(C)C(O)C(Cc1ccccc1Cl)n1cncn1 (centres unmarked) | 19.1
COc1ccc(OC)c(C(=O)c2coc3cc(Br)c(O)c(Br)c23)c1 | -7.56
